# The supplement of paper PMC3334620
# Whole data set: some 33,000 sequences, median “E-score (-0.5 to 0.5)” near -0.012, cut for the highest 2% near 0.29. The list shows a part of the results.
# Biological target: T1, Ybr033w (UniProt P38073)
# T1 sequence: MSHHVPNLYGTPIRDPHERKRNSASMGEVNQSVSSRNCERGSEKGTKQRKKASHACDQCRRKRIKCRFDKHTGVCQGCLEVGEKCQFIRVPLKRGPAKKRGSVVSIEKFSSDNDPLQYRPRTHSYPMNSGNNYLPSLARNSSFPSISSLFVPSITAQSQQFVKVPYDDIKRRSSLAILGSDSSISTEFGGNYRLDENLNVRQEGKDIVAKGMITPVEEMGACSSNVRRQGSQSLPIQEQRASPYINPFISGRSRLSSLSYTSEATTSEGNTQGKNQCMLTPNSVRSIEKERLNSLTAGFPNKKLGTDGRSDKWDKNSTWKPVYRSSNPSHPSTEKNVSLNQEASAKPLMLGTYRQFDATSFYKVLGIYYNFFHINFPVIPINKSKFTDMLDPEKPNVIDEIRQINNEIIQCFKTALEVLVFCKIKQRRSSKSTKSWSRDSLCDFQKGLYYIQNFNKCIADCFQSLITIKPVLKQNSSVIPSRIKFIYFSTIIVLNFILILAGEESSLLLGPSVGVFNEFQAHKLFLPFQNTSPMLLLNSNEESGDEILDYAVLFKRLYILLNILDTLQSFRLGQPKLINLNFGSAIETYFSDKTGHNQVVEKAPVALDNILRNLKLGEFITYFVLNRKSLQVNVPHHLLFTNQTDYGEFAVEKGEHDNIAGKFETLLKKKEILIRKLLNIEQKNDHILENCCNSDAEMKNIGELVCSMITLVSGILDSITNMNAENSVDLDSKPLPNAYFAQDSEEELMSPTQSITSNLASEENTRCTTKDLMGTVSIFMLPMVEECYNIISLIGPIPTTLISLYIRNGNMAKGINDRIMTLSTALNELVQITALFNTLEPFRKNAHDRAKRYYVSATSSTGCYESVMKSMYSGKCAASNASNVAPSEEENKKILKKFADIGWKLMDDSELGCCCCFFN
# Assay: PBM E-score (8-mer binding enrichment) (E-score (-0.5 to 0.5)); higher = stronger / more preferred TF binding; most listed sequences are background and not binding sites
# Details: protein concentration: 200 nM; construct: GST-full length
# Protocol: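 Universal 'all 10-mer' protein binding microarrays (Agilent AMADID 015681) probed with GST-tagged S. cerevisiae TFs (full-length or DBD) made by in vitro transcription/translation (PURExpress), about 100-200 nM. Bound TF was detected with fluorescent anti-GST. Each ungapped 8-mer (which stands for itself and its reverse complement) is scored by the PBM enrichment score (E-score), a modified Wilcoxon-Mann-Whitney statistic from -0.5 to +0.5, computed with the Universal PBM Analysis Suite. Scale: above 0.35 generally sequence-specific binding.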
row,Sequence,PBM E-score
1,ACCTCACA,-0.042
2,CACCGCGG,0.00512
3,ACCTCGAG,0.161
4,CATTATTA,0.243
5,GCAAGGTA,0.031
6,GGATACAA,0.12
7,CCTATGAA,-0.0222
8,CAGCCCCA,-0.133
9,GAGTCTCA,-0.198
10,AGACATTA,0.101
11,TGGGGACA,-0.193
12,ATTGTGAA,0.19
13,CAAAGGCG,-0.233
14,ACTTACTA,0.118
15,ATACCCCA,-0.0944
16,CTTTCTAA,0.136
17,CAAGATCA,0.0824
18,ACCCCACC,-0.00413
19,AAATCCCT,-0.0641
20,ATAATCTG,0.117
21,AGGATCAA,0.317
22,CGACTCAG,-0.114
23,CGAACGAG,-0.186
24,GTCGTTGA,-0.108
25,CCATTAGG,-0.119

row,Sequence,PBM E-score
1,GGCGGCCC,-0.404
2,AACATTCA,0.126
3,CGAGAGAG,-0.0679
4,AATACGAC,0.116
5,AATCTGGA,0.171
6,AGCGGCTC,-0.118
7,AATACATC,0.297
8,CCGGATAC,-0.0612
9,GGCCATAA,0.0149
10,AGGTAATC,0.134
11,ATTCCGGG,0.188
12,CGCGTATC,0.0709
13,AGTTCTGA,-0.0462
14,CAACTTCA,0.0086
15,TGGGAACA,0.111
16,ATAAGACA,0.118
17,AAAGGGCA,-0.22
18,CTGCTTAC,0.00918
19,ACAACAGC,0.137
20,AGCCCACG,-0.202
21,AAAGTCCT,0.0634
22,ACGCAAAG,-0.0573
23,ACGACTTG,-0.0732
24,GTGTCTAA,0.105
25,GTCCTATA,-0.0933

row,Sequence,PBM E-score
1,AAGGGAGT,-0.232
2,CATGAAGA,0.119
3,AAATGCAA,0.203
4,CGACGATA,-0.0965
5,AACGTGGA,-0.0836
6,AGACGAAG,-0.102
7,AAGTTTTC,0.285
8,CGACAAAG,0.0691
9,ATTCCTGC,0.105
10,CGCGAACC,-0.0133
11,CTGTTCTC,0.0395
12,CAAATCTA,0.187
13,CCCTCGGC,-0.237
14,GAGTCTCC,-0.198
15,GCAAACAC,-0.0584
16,CAGAACGC,-0.161
17,GAACCCGA,-0.158
18,GCACTACC,-0.113
19,AAAAGAAA,0.179
20,ACAGTCGA,-0.155
21,AAGCAGCG,-0.0559
22,GCAATCCC,-0.0124
23,AGGTAACA,0.148
24,GAATGAAC,0.176
25,CTCACTCC,-0.13

row,Sequence,PBM E-score
1,CTGAGTTC,0.037
2,GGGGTGAC,-0.0265
3,GCACGCGA,-0.226
4,CTAAGTCC,-0.148
5,CCGCAAAC,0.00333
6,TACCCAAA,0.178
7,CTTGAAAG,-0.0453
8,CTATAGGC,-0.163
9,GCGCGAGC,-0.21
10,CCACCGAG,-0.108
11,GGGCAACC,-0.116
12,ACTTGTAT,0.17
13,ACACTATG,0.116
14,AGCTCAAG,-0.0708
15,ATCAATCC,0.104
16,CCGTCGAA,-0.0394
17,AAATATTA,0.211
18,ACGAGGTA,-0.0559
19,GTGGACAC,-0.0803
20,CCCCATAG,0.0121
21,CAACAATG,0.0661
22,CGTTCCCA,-0.0679
23,CATATTTC,0.213
24,CCGATTGC,0.0858
25,AGCATCAG,-0.014

row,Sequence,PBM E-score
1,ATAGTCCA,0.045
2,GGCGAGTA,-0.00611
3,ATATCTCA,0.24
4,GAGGCTGA,-0.0957
5,ACCCACGA,-0.279
6,GTGACTAA,0.138
7,GAGTCCGA,0.0248
8,GCCTAAGA,-0.127
9,TACGAGTA,0.297
10,TCTCCTCA,-0.132
11,CCGAGGTC,-0.232
12,AAGTAAGC,0.0648
13,ATCCTTAA,0.0415
14,GGAGTCTA,-0.133
15,GTGGGGGA,-0.292
16,GATATAAC,0.199
17,CTTCCCAA,-0.0335
18,CGATTGGC,-0.0233
19,ATCACCCG,-0.093
20,CTCCAGCC,-0.211
21,CTCGTCCC,-0.0441
22,ACCTTTCG,-0.132
23,ATTATTTG,0.335
24,GTTCTGGA,0.128
25,ACAAGTAT,0.249

row,Sequence,PBM E-score
1,AAGAGTGC,-0.054
2,TCAAGGAA,0.12
3,AATCGCCA,0.0302
4,AGTGGTAT,0.0407
5,TCCCGAAA,0.0273
6,AGACTTAC,-0.129
7,ATGCTCCG,-0.212
8,ACCACCCA,-0.102
9,AATTTGGT,0.209
10,ACAGGTAA,0.0373
11,AATGGATG,-0.0366
12,AATGTTTC,0.116
13,ACACAACA,0.126
14,CGACGTTA,0.195
15,ACTACGGC,0.0341
16,GACGCGGC,-0.131
17,CAAGCGGC,-0.0713
18,CTCTTTAC,0.00327
19,ACTTGACA,-0.0363
20,GTTGTCAA,-0.00319
21,GCACATGA,-0.102
22,CCCGGTCA,-0.282
23,GCTATTAA,0.201
24,GGAATACC,-0.0772
25,AGAAAACC,-0.0273

row,Sequence,PBM E-score
1,TCACTTAA,0.192
2,AAGCCCCT,-0.278
3,ATATTGAC,-0.133
4,GTAATACA,0.163
5,ACCATTAG,0.117
6,GTCTCTGA,-0.0937
7,AATGTCAC,0.134
8,CGCTTTAA,-0.0255
9,ATTCTGTC,0.0466
10,ACATAGCT,-0.119
11,TTGACCAA,0.0648
12,ACAACCTA,0.0632
13,ACATGGCC,-0.0121
14,ATAAACTA,0.244
15,CGTAACAA,0.194
16,ACGAGTCG,0.0738
17,CGAAGGAG,-0.131
18,TACATCTA,0.197
19,ACTCGAAA,0.0672
20,ACGTCCGC,-0.121
21,GAGAGACC,-0.304
22,ACAACCGT,-0.03
23,CTGTCCGC,-0.103
24,TGATAGCA,0.126
25,AAATGATA,0.345

row,Sequence,PBM E-score
1,ATGTAAAT,0.245
2,GACAACCC,-0.254
3,GACTTTCA,-0.097
4,ATACACGG,-0.0216
5,AGCGGATG,-0.216
6,CCGAAGGA,-0.178
7,AGAGCTAC,-0.0969
8,ATTCAGAA,0.0954
9,CGGCACTC,-0.128
10,CACGATCC,-0.0767
11,GCACAAGC,-0.138
12,AGGGGCCC,-0.382
13,CTAATTAG,0.141
14,AAGCGCTT,0.0897
15,CATGGCCC,-0.116
16,ATCCGGTG,0.136
17,CCGTATAC,0.0358
18,CCGAGACA,-0.144
19,ACTATTCA,0.217
20,CGGTGCAC,-0.174
21,CTATAGCC,-0.215
22,CAACCGCC,-0.109
23,TAGGTTAA,0.182
24,GGGACAAA,0.006
25,CTCCAGAC,-0.17

row,Sequence,PBM E-score
1,CGGTTCCC,-0.253
2,CTTATGTC,0.029
3,TCCGTTAA,0.244
4,TAGAGTAA,0.227
5,GTTGGCAA,0.0463
6,AGATCAAG,0.149
7,AAGGTTCG,-0.0859
8,GCCTAACC,-0.124
9,TATGTGAA,-0.0515
10,CAAAGTCC,-0.0191
11,GCACATAA,0.00793
12,CCCCTTCG,-0.317
13,CAGCGCCG,-0.228
14,CAGCAGAC,-0.106
15,CGGAGAAA,0.39
16,AACCTGCC,-0.0858
17,CCAGGTAC,-0.147
18,ACGTATCA,0.0624
19,CCGTGTCC,-0.204
